# Values joined by “and” are separate entries in the source; they are usually repeats but may differ in a detail not shown here. Equal values may be shown once. Hit rate of the full screen: of about 420,000 compounds, about 64,000 (15%) were called active. Inconclusive means that the source gave no clear call. Such entries were picked first, then a sample of the others. The call rests on the fitted dose curve; in most records, active means well fitted inhibition curve with a large enough effect; inconclusive means small, poorly fitted or top-dose-only effect; inactive means flat fitted curve, though single readings scatter. Where the call is inconclusive, the potency comes from a doubtful curve fit.
# Experiment: qHTS for Inhibitors of human tyrosyl-DNA phosphodiesterase 1 (TDP1): qHTS in cells in absence of CPT; further: nearly all actives have a fitted effect of over 55% in size
# Settings: DT40 Tdp1-/- hTDP1 cells, no CPT, ATP luminescence, 48 h; activity change, negative = growth inhibition: at 46.2 µM (top of the series) unless noted
# Outline: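 Chicken DT40 Tdp1-/- cells complemented with human TDP1, screened without camptothecin (DMSO vehicle only), 400 cells/well. Compounds pin-transferred, cells incubated at 37 °C for at least 48 hr. Growth read as ATP-dependent luminescence (CellTiter-Glo, 30 min at RT).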
# On the % scale 0 is the no-effect control and ±100 the full control effect; potency means the concentration at half of the fitted maximal effect; tags describe the fitted curve by direction and shape.
Compound,Potency,"activity change, negative = growth inhibition"
CC1=C(C(=O)OC2CCCCC2)C(c2ccc(C)o2)C2=C(CC(C)(C)CC2=O)N1 (centres undefined),"inconclusive: 23.1 µM [inhibitor, single point]",–
O=C(Cc1ccc(S(=O)(=O)N2CCCCC2)s1)Nc1ccc(F)c(F)c1,active: 23.1 µM,–
O=C(Cc1c[nH]c2ccccc12)NC1(C(=O)NC2CCCCC2)CCCCC1,"inconclusive: 8.2 µM [inhibitor, partial curve]",–
COCC(=O)N(C)C[C@H]1Oc2cc(C#Cc3cccnc3)ccc2S(=O)(=O)N([C@H](C)CO)C[C@H]1C,"inconclusive: 16.4 µM [inhibitor, single point]",–
N#Cc1cccc(-c2ccc3ncnc(NCc4cccs4)c3c2)c1,active: 23.1 µM,–
CCCOc1ccc(N/C=C/C(=O)c2ccc(OC)c(OC)c2)cc1,"inconclusive: 18.4 µM [inhibitor, single point]",–
CC[C@@H]1Cc2[nH][nH]c(=O)c2[C@@H](c2ccc(F)cc2)O1,–,inconclusive: -35.4% [inhibitor]
COCCN=c1scc(-c2ccco2)n1/N=C/c1ccc(O)c(O)c1O,"inconclusive: 20.6 µM [inhibitor, single point]",–
COc1cccc(C2c3cc4c(cc3OC(C)(N3CCCC3)C2C)OCO4)c1O (centres undefined),active: 10.3 µM,–
O=C(NC1CCCC1)c1ccc2c(c1)N(Cc1ccc(C(F)(F)F)cc1)C(=O)c1ccccc1S2,active: 9.2 µM,–
Cn1c(=O)c2cc(NC(=O)CCc3ccccc3)ccc2n1Cc1cccc(C(F)(F)F)c1,active: 13 µM,–
Oc1ccc(-c2nc3ccccn3c2NCc2ccc3c(c2)OCO3)cc1,"inconclusive: 20.6 µM [inhibitor, single point]",–
CC(C)(C)c1ccc(S(=O)(=O)NCC(=O)N2CCN(Cc3ccccc3)CC2)cc1,"inconclusive: 29.1 µM [inhibitor, single point]",–
COc1ccc(NC(C)=O)cc1NC(C)c1nc2sc(C)c(C)c2c(=O)[nH]1 (centres undefined),–,inactive: -3.85%
CC(C)n1c2ccccc2c2nnc(SCC(=O)Nc3ccccc3C(=O)O)nc21,"inconclusive: 23.1 µM [inhibitor, single point]",–
CC1(C(=O)NS(=O)(=O)c2ccccc2Cl)CCN1C(=O)Cc1cccs1 (centres undefined),–,inactive: 18%
Cc1cc[n+](-c2[nH]c(=O)sc2/C=N/NC(=O)c2ccccc2[O-])cc1C,–,inactive: 7.5%
CCOC(=O)C1=C(CC)Nc2ccccc2N/C1=N\S(=O)(=O)c1ccccc1OC,–,inactive: 14.3%
CN(C)C(=O)c1ccc(NC(=O)Cn2nnnc2-c2ccccc2F)cc1,active: 18.4 µM,–
COc1ccc(OCC(=O)NNC(=O)c2ccc3c(=O)n4c(nc3c2)CCC4)cc1,–,inactive: 10.3%
COc1ccc(C2CC2C(=O)c2ccccn2)cc1 (centres undefined),–,inactive: 3.47%
COc1ccc(N2CCN(C(=O)CSc3n[nH]c(-c4ccccc4)n3)CC2)cc1,"inconclusive: 29.1 µM [inhibitor, single point]",–
CC(=O)Nc1ccc(NC(=O)CSc2ncc(C(=O)Nc3ccc(F)cc3)c(=O)n2C)cc1,active: 20.6 µM,–

Compound,Potency,"activity change, negative = growth inhibition"
COc1ccc(Br)cc1CNC(=O)C1CCCN(c2nc3ccccc3o2)C1 (centres undefined),"inconclusive: 18.4 µM [inhibitor, single point]",–
Cc1c(C(=O)NCc2ccccc2)c(-c2ccccc2)nn1-c1ccccc1,"inconclusive: 23.1 µM [inhibitor, single point]",–
COc1ccc(-c2noc(CCC(=O)N(C)c3ccccc3C)n2)cc1,"inconclusive: 18.4 µM [inhibitor, single point]",–
COc1ccc(Nc2c3c(nc4ccc(NC(=O)/C=C/c5cc(OC)c(OC)c(OC)c5)cc24)CCCC3)cc1OC,active: 1.84 µM,–
O=C(Nc1ccc(-c2nc3cc(NC(=O)c4ccccc4Cl)ccc3o2)cc1)c1ccccc1Cl,active: 2.91 µM,–
CCOC(=O)c1c(NC(=O)CN2C(=O)CN(C)C2=O)sc(C)c1C,"inconclusive: 23.1 µM [inhibitor, single point]",–
Cc1cc(C)c(C(=O)CC(=O)c2cccnc2)c(C)c1,"inconclusive: 25.9 µM [inhibitor, single point]",–
Cc1c(C(=O)NC(C)c2ccccn2)oc2c(Cl)cccc12 (centres undefined),"inconclusive: 20.6 µM [inhibitor, single point]",–
CC(=O)OC1CCC2(C)C(CCC3C2CC(=O)C2(C)C3CC(C(C(C)=O)C(C)=O)C2C(C)=O)C1 (centres undefined),"inconclusive: 23.1 µM [inhibitor, single point]",–
Cc1occc1C(=O)N/N=C/C=C/c1ccc(N(C)C)cc1,"inconclusive: 29.1 µM [inhibitor, single point]",–
COc1ccccc1C(CNC(=O)c1cccc(S(=O)(=O)N2CCCc3ccccc32)c1)N(C)C (centres undefined),"inconclusive: 23.1 µM [inhibitor, single point]",–
O=[N+]([O-])c1ccccc1S(=O)(=O)Oc1ccc(/C=N/n2cnnc2)cc1,"inconclusive: 20.6 µM [inhibitor, single point]",–
C[C@@H]1CC=C[C@H]2[C@H]1C(=O)N(Cc1ccccc1)[C@H]2c1ccc2ccccc2c1,"inconclusive: 20.6 µM [inhibitor, single point]",–
O=C(N[C@H](Cc1cc(=O)[nH]c2ccccc12)C(=O)O)c1ccc(Cl)cc1,–,inconclusive: -35.7% [inhibitor]
O=C(Nc1ccc(S(=O)(=O)N2CCCC2)cc1Cl)C1=COCCO1,–,inactive: -23.1%
Cc1cc(C)c2nc(SCC(=O)NNC(=O)c3ccco3)c(C)cc2c1,"inconclusive: 29.1 µM [inhibitor, single point]",–
O=C(C1=C(O)C(=O)N(Cc2ccco2)C1c1cccnc1)c1cc2ccccc2o1 (centres undefined),"inconclusive: 18.4 µM [inhibitor, partial curve]",–
O=C(Nc1ccccc1O)c1ccccc1O,"inconclusive: 29.1 µM [inhibitor, single point]",–
Fc1cccc(Cl)c1/C=C/c1cnc2ccccc2n1,"inconclusive: 16.4 µM [inhibitor, partial curve, poor fit]",–
CN(C)S(=O)(=O)c1ccc(N2CCCC2)c(C(=O)NC2(C)CCS(=O)(=O)C2)c1 (centres undefined),–,inactive: -3.23%
Cc1c(C(=O)N2CCN(c3ccccn3)CC2)oc2c(F)cccc12,"inconclusive: 25.9 µM [inhibitor, partial curve, poor fit]",–
O=C(/C=C/c1ccccc1)N/C(=C/c1ccccc1)C(=O)N1CCCCC1,–,inconclusive: -31.1% [inhibitor]
COc1ccc(NC(=O)C(c2ccccc2)c2ccccc2)c(OC)c1,"inconclusive: 9.2 µM [inhibitor, partial curve]",–

Compound,Potency,"activity change, negative = growth inhibition"
COc1cc(C(=O)OCC(=O)N2CC(C)OC(C)C2)cc(OC)c1OC (centres undefined),–,inactive: -0.519%
Cc1ccc(NC(=O)CCC(=O)N/N=C/c2cccnc2)cc1,–,inconclusive: -19.7% [inhibitor]
Cc1cc(NC(=O)Cn2nc(-c3cccs3)ccc2=O)cc(C)c1Br,active: 29.1 µM,–
COc1ccc(N(CC(=O)NCc2ccc(F)cc2)S(=O)(=O)c2c(C)noc2C)cc1,"inconclusive: 29.1 µM [inhibitor, partial curve, poor fit] and inconclusive: 20.6 µM [inhibitor, single point]",–
O=C(CN1C(=O)/C(=C\c2ccc(F)cc2)Oc2ccccc21)N1CCN(c2ccccn2)CC1,"inconclusive: 14.6 µM [inhibitor, partial curve]",–
COc1ccc(CNC(=O)CN2C(=O)NC(C)(c3ccc(Cl)cc3)C2=O)cc1 (centres undefined),–,inconclusive: -30.7% [inhibitor]
CCOC(=O)C1(CC2CCCCO2)CCN(Cc2nccn2-c2ccc(OC)cc2)CC1 (centres undefined),"inconclusive: 18.4 µM [inhibitor, single point]",–
N#Cc1ccc(-c2cccs2)nc1SCc1c(F)cccc1Cl,active: 0.651 µM,–
CN(C)c1ccc(CN(CC2CCCO2)C(=O)COc2ccccc2Cl)cc1 (centres undefined),active: 18.4 µM,–
COc1ccc2c(c1)CCc1cnc(-n3ncc(C(=O)N(C)CCc4ccccn4)c3C)nc1-2,"inconclusive: 23.1 µM [inhibitor, single point]",–
CCOCCCn1c(SCC(=O)NC2CCCC2)nc2ccccc2c1=O,"inconclusive: 29.1 µM [inhibitor, single point]",–
CC(C)OCCCNc1ncnc2c1[nH]c1ccc(F)cc12,active: 2.91 µM,–
COc1cc(/C=C2/SC(=O)N(CC(=O)N3CCCC3)C2=O)ccc1Oc1ccc([N+](=O)[O-])cn1,active: 20.6 µM,–
CC(C)NC(=O)c1cc2cc(Br)ccc2oc1=O,active: 23.1 µM,–
CCOc1cccc(/C=C/c2ccc3ccccc3n2)c1OC(C)=O,"inconclusive: 20.6 µM [inhibitor, single point]",–
CCCNC(=S)Nc1cc2oc3ccccc3c2cc1OC,"inconclusive: 16.4 µM [inhibitor, single point]",–
CCOC(=O)c1ccc(NC(=S)NCCC2=CCCCC2)cc1,active: 20.6 µM,–
COc1ccc(Cc2nnc(SCC(=O)c3ccc(OC)cc3)o2)cc1,"inconclusive: 18.4 µM [inhibitor, single point]",–
COc1ccccc1-c1cc(Nc2ccn[nH]2)ncn1,"inconclusive: 29.1 µM [inhibitor, single point]",–
COCCN(CCOc1cc(C)cc(C)c1)Cc1ccc(Cl)cc1,–,inactive: -19%
Cc1ccccc1C(=O)N(Cc1ccc(N(C)C)cc1)Cc1ccco1,active: 18.4 µM,–
Cc1oc(C)c2c(=O)ccc3c(c12)OC(N)=C(C#N)C3c1ccccc1Cl (centres undefined),"inconclusive: 29.1 µM [inhibitor, single point]",–
CCCc1nc2c3ccccc3ccn2c1Cc1cccc(Cl)c1,"inconclusive: 23.1 µM [inhibitor, single point]",–

# Source: PubChem BioAssay AID686978 (National Center for Advancing Translational Sciences (NCATS), 2013)
